According to publication PMC4336329 (PLoS ONE, 2015):
Hit rate of the full screen: of about 310,000 compounds, about 14,000 (4.5%) showed an effect of 50% or more. Effects have a minus sign here. The list shows a part of the results.

Biological target: human ether-à-go-go-related gene (hERG) potassium channel (human, UniProt Q12809)
Test: primary screen, population patch clamp on CHO cells stably expressing hERG
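Also: peak tail current of the secondary pulse compared with the same well before compound.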

Sequence of human ether-à-go-go-related gene (hERG) potassium channel (Q12809 whole entry, looked up): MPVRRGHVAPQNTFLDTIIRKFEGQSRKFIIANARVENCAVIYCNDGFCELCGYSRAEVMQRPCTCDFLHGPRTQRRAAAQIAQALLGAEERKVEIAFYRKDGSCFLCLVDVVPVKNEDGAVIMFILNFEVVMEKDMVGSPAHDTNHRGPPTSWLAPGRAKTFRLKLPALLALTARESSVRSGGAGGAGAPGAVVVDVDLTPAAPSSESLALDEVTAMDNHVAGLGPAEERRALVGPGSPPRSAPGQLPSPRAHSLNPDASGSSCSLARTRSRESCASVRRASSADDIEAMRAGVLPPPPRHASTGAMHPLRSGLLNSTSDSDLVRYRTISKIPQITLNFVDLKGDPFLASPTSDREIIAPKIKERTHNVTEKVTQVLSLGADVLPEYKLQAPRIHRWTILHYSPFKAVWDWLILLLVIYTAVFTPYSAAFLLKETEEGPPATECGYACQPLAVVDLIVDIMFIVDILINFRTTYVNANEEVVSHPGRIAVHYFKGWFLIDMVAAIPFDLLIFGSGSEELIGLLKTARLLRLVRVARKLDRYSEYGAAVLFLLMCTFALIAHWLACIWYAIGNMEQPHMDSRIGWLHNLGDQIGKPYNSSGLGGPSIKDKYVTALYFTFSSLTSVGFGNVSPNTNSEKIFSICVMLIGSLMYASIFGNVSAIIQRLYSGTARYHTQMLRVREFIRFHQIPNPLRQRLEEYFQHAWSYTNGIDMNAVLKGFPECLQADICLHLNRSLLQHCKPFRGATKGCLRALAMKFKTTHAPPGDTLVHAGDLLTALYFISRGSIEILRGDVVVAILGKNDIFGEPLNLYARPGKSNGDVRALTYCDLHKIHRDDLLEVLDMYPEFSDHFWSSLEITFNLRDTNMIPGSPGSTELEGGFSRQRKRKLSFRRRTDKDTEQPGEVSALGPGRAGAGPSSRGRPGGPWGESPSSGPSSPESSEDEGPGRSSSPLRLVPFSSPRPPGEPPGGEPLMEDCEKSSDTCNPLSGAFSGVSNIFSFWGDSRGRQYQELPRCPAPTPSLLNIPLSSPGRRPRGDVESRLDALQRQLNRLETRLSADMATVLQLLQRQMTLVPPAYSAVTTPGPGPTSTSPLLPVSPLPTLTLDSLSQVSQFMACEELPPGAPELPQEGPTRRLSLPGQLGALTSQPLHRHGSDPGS

Row | SMILES | hERG current change (%, negative = inhibition) at 10uM
1 | CCCC(=O)Nc1ccc(C(N)=O)cc1 | 16.3%
2 | Cc1ccc(C(=O)N/C(=C\c2ccco2)C(=O)NCC2CCCO2)cc1C (stereo not shown) | 3.11%
3 | CC(CC(=O)N1CCN(c2ccc(C(F)(F)F)cn2)CC1)n1ccnc1 (stereo not shown) | -66.2%
4 | c1ccc(CSc2ncnc3c2sc2nc(N4CCOCC4)c4c(c23)CCCC4)cc1 | -4.97%
5 | Cc1ccnc(N2CCCC(C(=O)NC3CC3)C2)n1 (stereo not shown) | -6.63%
6 | Nc1ccccc1N=Cc1c(O)n(CCC2=CCCCC2)c(=O)[nH]c1=O | 0.0276%
7 | CC(C)C[C@H](NC(=O)C1CCC(CNC(=O)[C@@H]2CCCN2C(=O)OC(C)(C)C)CC1)C(=O)O (stereo partly shown) | 13.1%
8 | CCOC(=O)N1CCN(C(=O)c2oc3ccc(S(=O)(=O)N4CCCCC4)cc3c2C)CC1 | -21.6%
9 | CN(C)CCCN(C(=O)c1ccc(S(=O)(=O)N2CCc3ccccc3C2)cc1)c1nc2ccc(F)cc2s1.Cl | 1.76%
10 | CCCCn1c(N)c(N(CCOC)C(=O)CN2CC=C(c3ccccc3)CC2)c(=O)[nH]c1=O | 16%
11 | CCOc1ccc(OCCOc2cccc(C(F)(F)F)c2)cc1 | 9.77%
12 | CCNC(=O)CC1SC(=Nc2cccc(Cl)c2C)N(C)C1=O (stereo not shown) | 3.31%
13 | COc1ccc(N2CC(O)=C(c3nc(-c4ccc(F)cc4)cs3)C2=N)cc1OC | -19%
14 | C#CCOCCOCCOCCNc1nc(N2CCN(C(=O)[C@H](CCCCN)n3cc(C(N)CO)nn3)CC2)nc(N2CCN(C(=O)[C@H](CCC(=O)O)n3cc(C(N)[C@H](C)CC)nn3)CC2)n1.Cl (stereo partly shown) | 9.4%
15 | COc1cc(C(=O)N2CCN=C2c2ccccc2)cc(OC)c1OC | 6.39%
16 | N#C/C(=C(/O)Cc1ccccc1)P(=O)(c1ccccc1)c1ccccc1 | 4.09%
17 | Cc1nnc(NC(=O)CSc2cn(CCNC(=O)c3ccccc3)c3ccccc23)s1 | -2.03%
18 | COc1cc(/C=C2\S/C(=N/S(=O)(=O)c3ccc(C)cc3)NC2=O)c([N+](=O)[O-])cc1OC | -16.4%
19 | O=C(O)CCC(=O)Nc1ccc(C(=O)OCC(=O)c2ccc(Cl)cc2Cl)cc1 | 6.13%
20 | CCOC(=O)CNC(=O)CSc1nc(-c2ccccc2)ns1 | 2.32%
21 | O=C(CNC(=O)c1ccccc1)OC(C(=O)c1ccccc1)c1ccccc1 (stereo not shown) | 0.0122%
22 | N=C1SC(CC(=O)Nc2ccc([N+](=O)[O-])cc2)C(=O)N1c1ccccc1 (stereo not shown) | 6.39%

Row | SMILES | hERG current change (%, negative = inhibition) at 10uM
23 | NS(=O)(=O)c1ccc(CCNC(=O)C2CCN(S(=O)(=O)c3c(Cl)cccc3Cl)CC2)cc1 | -7.27%
24 | O=C(NC1CCCCC1)c1ccc(-c2ccc(Cl)cc2)o1 | 2.82%
25 | COc1cc(/C=C2\SC(=O)N(CC(=O)Nc3ccc(C)cc3)C2=O)cc(Cl)c1OCC(=O)O | 9.93%
26 | CN1C(=O)c2ccccc2C(C(=O)NCCCN2CCCC2)C1c1c[nH]c2ccccc12 (stereo not shown) | 0.177%
27 | CCOC(=O)CCNC(C)C1COc2ccccc2O1.O=C(O)C(=O)O (stereo not shown) | 1.93%
28 | S=C(NCC1CCCO1)Nc1ccc(Nc2ccccc2)cc1 (stereo not shown) | 3.04%
29 | Cc1cccc(NC(=O)CN2C(=O)COc3ccc(Cl)cc32)c1C | 8.74%
30 | COC(=O)C1=C(C)N(Cc2ccccc2)C(=O)N[C@H]1c1cccc(F)c1 | -2.86%
31 | O=C(CCC(=O)OCC(=O)c1cccc([N+](=O)[O-])c1)NC1CCCCC1 | -31.8%
32 | COc1ccc(CNC(C)C(=O)Nc2ccc3ccccc3c2)cc1OC (stereo not shown) | 7%
33 | COC(=O)c1ccc(COc2ccc(Cl)cc2)o1 | 2.11%
34 | O=C(CN1C(=O)c2cccnc2Oc2ccc(Cl)cc21)NC1CCCCCC1 | -3.92%
35 | Cc1nn(-c2ccccc2)c(C)c1/C=N/NC(=O)c1ccccc1NS(=O)(=O)c1cccs1 | 4.39%
36 | COc1ccc(-c2oc3ccccc3c2C#Cc2cncn2C)cc1 | 16%
37 | CCCc1ccc2oc(C(=O)N(C)CCn3ccnc3C)c(C)c2c1 | -61.4%
38 | Cc1ccccc1NC(=O)C1(C)Cc2ccccc2C(=O)O1 (stereo not shown) | 4.99%
39 | CSc1cccc(NC(=O)C(C)NS(=O)(=O)c2ccc(F)cc2)c1 (stereo not shown) | -15.1%
40 | CC(O)[C@@H](NC(=O)C1CCC(CNC(=O)[C@H](Cc2ccccc2)NC(=O)OC(C)(C)C)CC1)C(=O)O (stereo partly shown) | 18.2%
41 | CC1CCC(NCC(O)c2ccccc2)CC1 (stereo not shown) | 17.2%
42 | Br.CCCC1CC(CSC(=N)N)OC1=O (stereo not shown) | 13.9%
43 | CC1=C(C(=O)OC(C)C)C(c2cccs2)n2ncnc2N1 (stereo not shown) | 3.5%
44 | Cc1ccc(C(=O)NCC(=O)OCN2C(=O)c3ccccc3C2=O)cc1C | 6.97%

Row | SMILES | hERG current change (%, negative = inhibition) at 10uM
45 | Cc1cc(C(=O)N/N=C/c2c(C)n(C)c3ccccc23)n[nH]1 | -5.39%
46 | Cc1ccc2[nH]c(=O)c(CN(CC3COCCO3)C(=O)Nc3ccccc3C)cc2c1 (stereo not shown) | 3.87%
47 | Cc1cc(S(=O)(=O)Nc2ccc(C(=O)NCC(C)(C)N3CCOCC3)cc2)ccc1F | -18.4%
48 | CCOC(=O)/C=C1\SCC(=O)N1CC(=O)NCCOC | -10.2%
49 | CN(C)S(=O)(=O)c1cccc(NC(=S)Nc2cc(Cl)cc(Cl)c2)c1 | -5.01%
50 | Cc1cccc(Cc2cnc(NC(=O)c3ccc(C)o3)s2)c1 | -8.65%
51 | Cc1cccc(NC(=S)NCCc2ccc(S(N)(=O)=O)cc2)c1C | 11.4%
52 | O=c1c2cc3c(=O)n(CC4CCCO4)c(=O)c3cc2c(=O)n1CC1CCCO1 (stereo not shown) | -3.92%
53 | Cc1nn(C)cc1CNC(=O)c1ccc(F)cc1 | 10.7%
54 | COc1ccc(OC)c([C@@H](O)[C@H](C)NC(C)(C)C)c1.Cl | 8.9%
55 | COc1ccc(N/C(N)=N/c2nc(CSc3ccc(C)cc3)cc(=O)[nH]2)cc1 | -33.8%
56 | NC(=O)COC(=O)CCSc1ccc(Cl)cc1 | 20.1%
57 | CCN(CC)c1ccc(/C=N/NC(=O)CNC(=O)c2cccnc2)cc1 | 1.49%
58 | CCCCN1CC(COc2ccccc2)OC1=O (stereo not shown) | -16%
59 | CS(=O)(=O)N1c2ccccc2[C@]2(Br)C[C@H]3C(=O)N[C@@H](Cc4ccccc4)C(=O)N3[C@H]12 | 14.7%
60 | Cc1oc(-c2ccccc2Cl)nc1CN1CCCN(C(=O)c2ccco2)CC1 | -65.4%
61 | CCC(=O)N1CCN(c2ccc(Cl)cc2NC(=O)c2cccc([N+](=O)[O-])c2)CC1 | -49.2%
62 | O=C(CN1CCOCC1)NCCNC(=O)CN1CCOCC1 | 3.02%
63 | Cc1ccc(C(=O)CCC(=O)OCC(=O)Nc2ccccc2SCC#N)cc1 | -18.5%
64 | Nc1cc2nsnc2cc1Br | 9.74%
65 | CC(C)NC(=O)CC1C(=O)NCCN1CC(c1ccccc1)c1ccccc1 (stereo not shown) | -19.6%
66 | O=C(NC1(C(=O)NC2CCCC2)CCCCC1)c1ccc2c(c1)OCO2 | 0.538%

Row | SMILES | hERG current change (%, negative = inhibition) at 10uM
67 | COc1ccc(OC)c(NC(=O)c2nc(-c3ccccc3)oc2C)c1 | -6.31%
68 | O=C(Nc1ccc(S(=O)(=O)Nc2ncccn2)cc1)C12CC3CC(CC(C3)C1)C2 | 13.4%
69 | Cc1cccc(C)c1NC(=O)C1(N(Cc2ccco2)C(=O)CC2NC(=O)NC2=O)CCCCC1 (stereo not shown) | 7.25%
70 | O=C(Nc1cccc(-c2nnc(-c3ccccc3)o2)c1)c1ccco1 | 13.3%
71 | CCOc1cc(CNCCO)c(Cl)cc1OCC(=O)NCCc1ccccc1 | -6.82%
72 | CC(C)(/C=N/O)N(O)C=C1C=CC(=O)C=C1 | 5.81%
73 | C=CCn1c(SCC(=O)NCCO)nc2sc(C)c(C)c2c1=O | 11.6%
74 | Cc1ccc(N2CCCn3c2cc(C)c(C#N)c3=O)cc1Cl | -22.8%
75 | CCOC(=O)C1=C(CN2CCc3ccccc32)NC(=O)NC1c1ccc(Cl)cc1 (stereo not shown) | -0.598%
76 | COc1ccccc1/C=C/C(=O)NCC(=O)n1nc(C)cc1C | 11.3%
77 | CC(=O)Nc1ccc(NS(=O)(=O)c2ccc3[nH]c(=O)[nH]c3c2)cc1 | 6.32%
78 | O=C(O)c1csc(-c2cccs2)n1 | 6.72%
79 | COc1ccc(C)cc1NC(=O)CCNS(=O)(=O)c1ccc2c(c1)CC(C)N2C(C)=O (stereo not shown) | 1.85%
80 | O=c1ccccn1CCOc1ccc(Cl)cc1 | 12.3%
81 | CCCCn1c(N)c(N(CC)C(=O)c2cccc(OCc3ccccc3)c2)c(=O)[nH]c1=O | -9.67%
82 | Cc1cc(C)c(NC(=O)CNC(=O)COC(=O)Cc2ccccc2C)c(C)c1 | 8.67%
83 | CC(=O)C1=C(O)C(=O)N(CCCn2ccnc2)C1c1ccc(Br)cc1 (stereo not shown) | 15.6%
84 | CN(C(=O)CSc1nnc2ccccn12)c1c(N)n(Cc2ccccc2)c(=O)[nH]c1=O | 4.42%
85 | O=C(c1ccc(Cl)cc1[N+](=O)[O-])N1CCN(c2ccccn2)CC1 | -34%
